This is an account of results in the supplement of paper PMC3334620.

In all, about 33,000 sequences were measured (“E-score (-0.5 to 0.5)”: median about -0.053, highest 2% from about 0.37 on). Some of the results follow.

This assay has as its target Hap1 (UniProt P0CE41). Briefly: PBM E-score (8-mer binding enrichment) (E-score (-0.5 to 0.5)); higher = stronger / more preferred TF binding; most listed sequences are background and not binding sites. Particulars: protein concentration: 200 nM; construct: GST-DNA-binding domain. Put shortly: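 Detection of bound protein used fluorescent anti-GST, with scans normalised by masliner. The proteins were GST-tagged yeast transcription factors applied at about 100-200 nM to universal all-10-mer Agilent arrays made double-stranded by primer extension. Each ungapped eight-base word, pooled with its reverse complement, was scored with an E-score from the Universal PBM Analysis Suite.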
Chain of UniProt P0CE41 (P0CE41 whole entry, the tested form may be a part): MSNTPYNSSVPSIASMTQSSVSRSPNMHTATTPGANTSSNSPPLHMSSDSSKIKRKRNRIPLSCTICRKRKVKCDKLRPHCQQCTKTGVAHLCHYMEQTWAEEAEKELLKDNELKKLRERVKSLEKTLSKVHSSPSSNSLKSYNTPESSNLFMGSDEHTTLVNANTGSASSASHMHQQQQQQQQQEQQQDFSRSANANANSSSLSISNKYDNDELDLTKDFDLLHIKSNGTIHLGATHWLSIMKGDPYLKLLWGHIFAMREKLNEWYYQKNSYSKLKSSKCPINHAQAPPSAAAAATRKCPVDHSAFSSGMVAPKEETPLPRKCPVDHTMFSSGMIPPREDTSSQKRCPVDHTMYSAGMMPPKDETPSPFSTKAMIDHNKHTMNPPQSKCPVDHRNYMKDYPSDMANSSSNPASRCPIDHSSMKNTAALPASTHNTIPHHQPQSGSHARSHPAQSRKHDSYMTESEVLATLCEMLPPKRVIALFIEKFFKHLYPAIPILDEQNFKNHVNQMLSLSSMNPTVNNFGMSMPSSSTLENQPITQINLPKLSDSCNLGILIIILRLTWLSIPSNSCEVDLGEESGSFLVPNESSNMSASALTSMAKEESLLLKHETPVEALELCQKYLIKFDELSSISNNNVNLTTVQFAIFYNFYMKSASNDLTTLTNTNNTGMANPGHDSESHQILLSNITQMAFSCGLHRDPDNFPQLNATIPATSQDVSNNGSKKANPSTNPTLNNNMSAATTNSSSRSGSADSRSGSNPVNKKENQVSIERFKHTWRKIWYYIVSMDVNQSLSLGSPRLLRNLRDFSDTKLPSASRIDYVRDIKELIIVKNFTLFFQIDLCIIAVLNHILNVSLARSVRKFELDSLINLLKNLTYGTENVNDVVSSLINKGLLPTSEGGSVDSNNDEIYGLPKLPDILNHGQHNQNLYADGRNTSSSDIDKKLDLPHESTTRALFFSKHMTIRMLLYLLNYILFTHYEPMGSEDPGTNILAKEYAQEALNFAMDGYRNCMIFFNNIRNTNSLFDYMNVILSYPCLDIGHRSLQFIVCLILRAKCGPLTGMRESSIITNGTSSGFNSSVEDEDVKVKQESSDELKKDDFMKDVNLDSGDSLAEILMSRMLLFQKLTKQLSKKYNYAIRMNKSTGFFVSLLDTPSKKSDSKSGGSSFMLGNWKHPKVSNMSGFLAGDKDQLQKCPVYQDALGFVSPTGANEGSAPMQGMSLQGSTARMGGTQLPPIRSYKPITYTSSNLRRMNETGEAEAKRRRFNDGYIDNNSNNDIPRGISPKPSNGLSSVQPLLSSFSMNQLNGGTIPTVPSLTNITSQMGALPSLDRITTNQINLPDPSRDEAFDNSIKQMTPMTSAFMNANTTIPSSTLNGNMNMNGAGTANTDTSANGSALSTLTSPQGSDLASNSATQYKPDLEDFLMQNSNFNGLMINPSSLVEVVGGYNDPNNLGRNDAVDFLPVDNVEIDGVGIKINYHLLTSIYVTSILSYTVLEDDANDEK
With CCCTCGAA, the “PBM E-score” value is -0.201.

In the case of GCAACTTA, the “PBM E-score” value turned out to be 0.0419.

Turning to ACCACTAC, the “PBM E-score” value was -0.0906.

With GTGCTAAA, the “PBM E-score” value is -0.0297.

As for CATAGCCG, the “PBM E-score” value was 0.254.

For the sequence AATGACCA, the “PBM E-score” value was -0.0277.

As for AGTTCGAC, the “PBM E-score” value is -0.196.

Consider CGTGCACA, for which the “PBM E-score” value was -0.349.

Turning to TCGGAAAA, the “PBM E-score” value came out at 0.402.

As for GCTCCGCA, the “PBM E-score” value was found to be 0.164.

For the sequence ATGCATTC, the “PBM E-score” value was -0.158.

In the case of AGCCAACG, the “PBM E-score” value was -0.146.

For the sequence AGCGAACT, the “PBM E-score” value is -0.137.

GACATATC: the “PBM E-score” value was 0.154.

Take CAGAACAA: the “PBM E-score” value is -0.101.

Regarding CCTCGAGC, the “PBM E-score” value is -0.0451.

For CCAGGGCA, the “PBM E-score” value was -0.0795.

Regarding CCCAGGAG, the “PBM E-score” value is -0.243.

Consider ACGGGATA, for which the “PBM E-score” value was determined as 0.117.

With ATAAGGTC, the “PBM E-score” value is 0.128.

As for AGTACTTA, the “PBM E-score” value was -0.0868.

For ACCAATAC, the “PBM E-score” value was -0.107.

With TTAACAAA, the “PBM E-score” value turned out to be 0.0395.

Consider CGATACAA, for which the “PBM E-score” value stood at 0.254.

For AGAGAGCA, the “PBM E-score” value is -0.15.

For CACAAATA, the “PBM E-score” value was -0.119.

Consider GCGTCGCA, for which the “PBM E-score” value was -0.0356.

As to AGGGTGCG, the “PBM E-score” value is -0.0707.

Turning to CGGGTCCA, the “PBM E-score” value is 0.226.

Regarding CCGCGCGG, the “PBM E-score” value was 0.367.

As to ACAATACA, the “PBM E-score” value was -0.0809.

Take GCCCGCTA: the “PBM E-score” value stood at 0.159.

With CGAATTAC, the “PBM E-score” value came to 0.15.

TGATGACA: the “PBM E-score” value was -0.159.

With TCCCGCGA, the “PBM E-score” value stood at 0.223.

As to ACTTATGC, the “PBM E-score” value was -0.0713.

On to GAGATATC, for which the “PBM E-score” value is 0.261.

Consider CGCCGTAG, for which the “PBM E-score” value was 0.187.

Take GGCGAACC: the “PBM E-score” value is 0.0857.

With CAAAACTC, the “PBM E-score” value was 0.131.

Consider ATGCCACA, for which the “PBM E-score” value was -0.175.

As for GGAGGTAC, the “PBM E-score” value is 0.126.

Consider CCCCATTC, for which the “PBM E-score” value amounted to 0.0138.

Turning to GAAACTGC, the “PBM E-score” value was -0.0752.

In the case of CGAGTTCC, the “PBM E-score” value turned out to be 0.00518.

With TAATCATA, the “PBM E-score” value is -0.134.

For the sequence CCACCAGC, the “PBM E-score” value was -0.0628.

For the sequence GACGCCGA, the “PBM E-score” value turned out to be 0.218.

For the sequence GCCGGGAC, the “PBM E-score” value was 0.185.

For AGGAGCGG, the “PBM E-score” value is -0.0364.

Consider AAGGCCAC, for which the “PBM E-score” value was -0.138.
